# Reference: PubChem BioAssay AID1508624 (National Center for Advancing Translational Sciences (NCATS), 2021)
# Where “and” joins values, the source holds several entries; their conditions need not be identical. Identical values can stand only once. Screen size: about 48,000 compounds; about 120 (0.25%) were called active. Another 4% or so got no clear call; they are omitted. Calls follow the shape of the dose curve; as a rule, active = well fitted activation curve with a large enough effect; inconclusive = small, poorly fitted or top-dose-only effect, or another doubt; inactive = no such curve, though single readings can be large or run the other way. The list shows a part of the results.
# Test: Primary qHTS for Identification of Small Molecule Activators of Huntingtin-Antisense Promoter Activity; also: nearly all actives have a fitted effect of over 55% in size
# Conditions: HEK293 HTT-AS promoter firefly luciferase reporter, 24 h; at 57.5 µM (top of the series) unless noted
# Outline: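 HEK293 Fluc reporter, 2,500 cells/well, 24 h pre-culture; cpds up to 57.5 uM final, 24 h 37 degrees C; Dual-Glo, 10 min RT; normalized vehicle = 0%, zero RLU = -100%.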
row,SMILES,"activity change, positive = activation"
1,CCN1CCN(C(=O)Cc2ccc(Nc3ncc(F)c(Nc4ccc(C(=O)Nc5ccccc5Cl)cc4)n3)cc2)CC1,inactive: -12.4%
2,COC1(CS(=O)c2ccccc2)CCN(CCc2c[nH]c3ccc(F)cc23)CC1 (stereo unspecified),inactive: -14%
3,O=C(COc1ccccc1[N+](=O)[O-])N1CCN(CCc2ccccn2)CC1,"inactive: -14.7% [at 57.5 µM, percent change from vehicle, -100% = no light]"
4,Cc1ccccc1-n1c(/C=C/c2ccccc2F)nc2ccccc2c1=O,inactive: -37.6%
5,O=C(Nc1ccccc1C(F)(F)F)c1cccn(Cc2ccccc2)c1=O,"inactive: -42.8% [at 57.5 µM, percent change from vehicle, -100% = no light]"
6,Cc1ncsc1CCCl,inactive: -0.211%
7,O=[N+]([O-])O[C@H]1CO[C@H]2[C@@H]1OC[C@H]2O[N+](=O)[O-],inactive: -0.17%
8,Cc1ccc(-n2c(/C=C/c3cccc4ccccc34)nc3ccccc3c2=O)cc1,"inactive: -7.71% [at 57.5 µM, percent change from vehicle, -100% = no light]"
9,C=C1CC[C@@]2(O)[C@H]3Cc4ccc(O)c5c4[C@@]2(CCN3CC2CC2)[C@H]1O5,inactive: -6.12%
10,C[C@]12Cc3nonc3C[C@@H]1CC[C@@H]1[C@@H]2CC[C@@]2(C)[C@H]1CC[C@]2(C)O,inactive: -32.4%
11,COC[C@H]1OC(=O)c2coc3c2[C@@]1(C)C1=C(C3=O)C2CCC(=O)[C@@]2(C)C[C@H]1OC(C)=O (stereo partly specified),inactive: -18.3%
12,O=C(CCCN1CCC2(CC1)C(=O)NCN2c1ccccc1)c1ccc(F)cc1,inactive: -15.1%
13,Cc1cccc(Cn2cccc(C(=O)Nc3nc4ccccc4s3)c2=O)c1,"inactive: -11.4% [at 57.5 µM, percent change from vehicle, -100% = no light]"
14,CCOC(=O)c1ccc(NC(=O)CSc2nc3c(cc2C#N)N2CCC3CC2)cc1,inactive: -19.7%
15,Cc1cccc(-n2c(CC3C(=O)Nc4ccc(C)cc43)nc3ccccc3c2=O)c1 (stereo unspecified),inactive: -5.84%
16,NCC1(CC(=O)O)CCCCC1,inactive: -6.59% and inactive: 1.76%
17,COc1cccc(-n2c(/C=C/c3cccc(C)c3)nc3ccccc3c2=O)c1,"inactive: -11% [at 57.5 µM, percent change from vehicle, -100% = no light]"
18,CCC(=O)C(CC(C)N(C)C)(c1ccccc1)c1ccccc1 (stereo unspecified),inactive: -12.6% [at 116 µM]
19,CC(=O)C1CCOC1=O (stereo unspecified),inactive: 2.19%
20,CCn1c(CN2CCN(C)CC2)nc2ccccc21,inactive: 0%
21,C=C[C@@H]1CN2CCC1C[C@@H]2[C@@H](O)c1ccnc2ccccc12 (stereo partly specified),inactive: -63.3%
22,Cc1ccc(C)c(CN2C(=O)c3ccccc3Sc3ccc(C(=O)N4CCC5(CC4)OCCO5)cc32)c1,inactive: -47%
23,O=C(c1ccc2c(c1)N(Cc1c(F)cccc1Cl)C(=O)c1ccccc1S2)N1CCC2(CC1)OCCO2,inactive: -25.7%
24,O=C(Nc1ccc(OC(F)(F)F)cc1)c1cccn(Cc2ccccc2Cl)c1=O,inactive: -27.3%
25,O=c1[nH]oc2c1CCNC2,inactive: 0.631%
26,Cc1cccc(CN2C(=O)CN=C(c3ccccc3Cl)c3cc(Cl)ccc32)c1,inactive: -35.1%

row,SMILES,"activity change, positive = activation"
1,CCOC(C(=O)OCCN(C)C)(c1ccccc1)c1ccccc1,inactive: -12.1%
2,CN1[C@@H]2CC[C@H]1CC(OC(=O)c1cc(Cl)cc(Cl)c1)C2 (stereo partly specified),inactive: -16%
3,Cc1ccc(-n2c(/C=C/c3ccccc3)nc3ccccc3c2=O)cc1C,inactive: 8.78%
4,CCOC(=O)Nc1ccc(NCc2ccc(F)cc2)cc1N,inactive: -28.6%
5,C[C@@H]1C[C@@H]([C@H](O)CC2CC(=O)NC(=O)C2)C(=O)[C@@H](C)C1,inactive: -31.9% and inactive: -35.3%
6,C[C@H](N)C(=O)c1ccccc1,inactive: -5.08% [at 116 µM]
7,O=C(O)c1nn(Cc2ccc(Cl)cc2Cl)c2ccccc12,inactive: -22.2% and inactive: -7.1%
8,Nc1ccccc1C(=O)OCC(O)CO (stereo unspecified),inactive: 1.99%
9,COc1cc2cc(c1Cl)N(C)C(=O)C[C@H](OC(=O)C(C)C)[C@]1(C)O[C@H]1[C@H](C)[C@@H]1C[C@@](O)(NC(=O)O1)[C@H](OC)C=CC=C(C)C2,inactive: -34.6%
10,O=C(O)C(Cl)Cl,inactive: 1.15%
11,CCOc1ccc(CN2C(=O)c3ccccc3Sc3ccc(C(=O)N4CCC5(CC4)OCCO5)cc32)cc1,inactive: -17%
12,Cc1c(C(c2ccc(O)cc2)c2c(O)c3ccccc3oc2=O)c(=O)n(-c2ccccc2)n1C (stereo unspecified),inactive: -12.3%
13,NC(=O)c1ccc(NC(=O)c2cccn(Cc3ccccc3)c2=O)cc1,"inactive: 0.196% [at 57.5 µM, percent change from vehicle, -100% = no light]"
14,CCC1(CCC(C)C)C(=O)NC(=O)NC1=O,inactive: -9.21% [at 116 µM]
15,Cc1ccc(-n2c(/C=C/c3cccc(C(F)(F)F)c3)nc3ccccc3c2=O)cc1,"inactive: -9.05% [at 57.5 µM, percent change from vehicle, -100% = no light]"
16,O=c1c2ccccc2nc(/C=C\c2cccc(Br)c2)n1-c1ccc(O)cc1,inactive: -33%
17,Cc1cccc(-n2c(/C=C/c3cccc4ccccc34)nc3ccccc3c2=O)c1,inactive: -21%
18,CCSc1nnc(NC(=O)c2cccn(Cc3ccc(Cl)cc3)c2=O)s1,inactive: -8.47%
19,CCC1(C2=NCCN2)Cc2ccccc2O1 (stereo unspecified),inactive: -7.93%
20,CC[C@@H](CO)NC(=O)[C@@H]1C=C2c3cccc4[nH]cc(c34)C[C@H]2N(C)C1,inactive: -7.19%
21,Cc1cccc(OC(C)C(=O)NCC2(N(C)C)CCCCC2)c1C (stereo unspecified),inactive: 1.53%
22,Cc1nnc(NC(=O)c2cccn(Cc3ccccc3)c2=O)s1,"inactive: 8.17% [at 57.5 µM, percent change from vehicle, -100% = no light]"
23,Cc1nnc2n1-c1sc(CCC(=O)N3CCOCC3)cc1C(c1ccccc1Cl)=NC2,inactive: -6.26%
24,CCCc1nc(SC)ncc1C(=O)Nc1ccc(Cl)cc1C(=O)c1ccccc1,inactive: -28.2%
25,CC[N+]1(C)CCCC(OC(=O)C(O)(c2ccccc2)c2ccccc2)C1 (stereo unspecified),inactive: -4.82%
26,O=C(Nc1nc2ccccc2s1)c1cccn(Cc2ccccc2)c1=O,inactive: -41.3%

row,SMILES,"activity change, positive = activation"
1,CC(Cc1ccccc1)N(C)Cc1ccco1 (stereo unspecified),inactive: -2.07%
2,CN(C)CCc1c[nH]c2ccccc12,inactive: -4.28% [at 222 µM]
3,COc1ccc(CC2NCCc3cc(OC)c(OC)cc32)cc1OC (stereo unspecified),inactive: -33.5%
4,CCCCCC[C@H]1C(=O)O[C@H](C)[C@H](NC(=O)c2cccc(NC=O)c2O)C(=O)O[C@@H](C)[C@@H]1OC(=O)CC(C)C,inactive: -94.1%
5,O=C(COc1ccccc1Cl)N1CCN(CCc2ccccn2)CC1,inactive: 9.77% [at 11.5 µM]
6,c1ccc2c(c1)OCC(C1=NCCN1)O2 (stereo unspecified),inactive: -4.9%
7,Nc1ccc([N+](=O)[O-])cc1,inactive: -10% [at 116 µM]
8,CN1C(=O)CN=C(c2ccccc2)c2cc(Cl)ccc21,inactive: -18.1%
9,CC(Cc1ccccc1)NCc1ccccc1Cl (stereo unspecified),inactive: 0.253%
10,C[C@]12CC[C@H](O)CC1=CC[C@@H]1[C@@H]2CC[C@]2(C)C(=O)CC[C@@H]12,inactive: -14.5%
11,COc1ccc(NC(=O)CN2C(=O)CN=C(c3ccccc3)c3ccccc32)c(OC)c1,"inactive: -21.9% [at 57.5 µM, percent change from vehicle, -100% = no light]"
12,COc1ccccc1CN1CCN(C(=O)COc2cccc(C)c2)CC1,inactive: -2.5%
13,c1ccc(CN2CCNCC2)cc1,inactive: -4.6% [at 222 µM]
14,Cc1ccccc1-n1nc(C)c2c1NC(=O)CSC2c1ccccc1C(F)(F)F (stereo unspecified),inactive: -31.5%
15,COP(=S)(OC)Oc1ccc(S(=O)(=O)N(C)C)cc1,inactive: -15.8%
16,CNC(=O)c1ccc(N2C(=S)N(c3ccc(C#N)c(C(F)(F)F)c3)C(=O)C23CCC3)cc1F,inactive: -32.7%
17,CCOc1ccc(CN(CCc2ccc3c(c2)OCO3)Cc2ccc(CC)cc2)cc1,"inactive: -10.3% [at 57.5 µM, percent change from vehicle, -100% = no light]"
18,C[CH2][Hg][S]c1ccccc1C(=O)O,inactive: -95.5%
19,C=CCON=C(C[C@H]1O[C@@H]2O[C@]3(C)CC[C@@H]4[C@H](C)CC[C@@H]([C@H]1C)[C@@]24OO3)[C@H]1O[C@@H]2O[C@]3(C)CC[C@H]4[C@H](C)CC[C@@H]([C@@H]1C)[C@@]24OO3,inactive: -24.5%
20,COc1ccc2c(c1OC)CN1CCc3cc4c(cc3C1C2)OCO4 (stereo unspecified),inactive: -13% and inactive: -1.65%
21,CN1CCC(N(Cc2ccccc2)c2ccccc2)CC1,inactive: -16.1%
22,COc1ccc(OC)c(CCNCc2c(C(=O)O)c(C)n(Cc3ccc(F)cc3Cl)c2C)c1,"inactive: -12% [at 57.5 µM, percent change from vehicle, -100% = no light]"
23,Cc1cc(OCC(=O)N2CCN(CCc3ccncc3)CC2)cc(C)c1Cl,inactive: -18.5%
24,COc1ccc(NC(=O)CCc2nc(C3=CCN(Cc4cccc(C)c4)CC3)no2)c(OC)c1,"inactive: 3.73% [at 57.5 µM, percent change from vehicle, -100% = no light]"
